Article PMC4457033
Residue numbers refer to the chain shown, from its start. Like-named read-outs stand apart in the source and are kept apart here. Results are given in words; binding and its absence hold for the method and conditions named. For some of these results: Binding seen in cells or lysates may run through a third protein. Some entries that bind do so weakly or less than the wild type. For some of these results: Sequences can lack the tags named with a protein. One block for each molecule: values may come before it.

Sequences of proteins named here, by UniProt entry; tags and fusion partners are left off. Residues count along the entry.
UniProt Q9Z138, residues 34-944: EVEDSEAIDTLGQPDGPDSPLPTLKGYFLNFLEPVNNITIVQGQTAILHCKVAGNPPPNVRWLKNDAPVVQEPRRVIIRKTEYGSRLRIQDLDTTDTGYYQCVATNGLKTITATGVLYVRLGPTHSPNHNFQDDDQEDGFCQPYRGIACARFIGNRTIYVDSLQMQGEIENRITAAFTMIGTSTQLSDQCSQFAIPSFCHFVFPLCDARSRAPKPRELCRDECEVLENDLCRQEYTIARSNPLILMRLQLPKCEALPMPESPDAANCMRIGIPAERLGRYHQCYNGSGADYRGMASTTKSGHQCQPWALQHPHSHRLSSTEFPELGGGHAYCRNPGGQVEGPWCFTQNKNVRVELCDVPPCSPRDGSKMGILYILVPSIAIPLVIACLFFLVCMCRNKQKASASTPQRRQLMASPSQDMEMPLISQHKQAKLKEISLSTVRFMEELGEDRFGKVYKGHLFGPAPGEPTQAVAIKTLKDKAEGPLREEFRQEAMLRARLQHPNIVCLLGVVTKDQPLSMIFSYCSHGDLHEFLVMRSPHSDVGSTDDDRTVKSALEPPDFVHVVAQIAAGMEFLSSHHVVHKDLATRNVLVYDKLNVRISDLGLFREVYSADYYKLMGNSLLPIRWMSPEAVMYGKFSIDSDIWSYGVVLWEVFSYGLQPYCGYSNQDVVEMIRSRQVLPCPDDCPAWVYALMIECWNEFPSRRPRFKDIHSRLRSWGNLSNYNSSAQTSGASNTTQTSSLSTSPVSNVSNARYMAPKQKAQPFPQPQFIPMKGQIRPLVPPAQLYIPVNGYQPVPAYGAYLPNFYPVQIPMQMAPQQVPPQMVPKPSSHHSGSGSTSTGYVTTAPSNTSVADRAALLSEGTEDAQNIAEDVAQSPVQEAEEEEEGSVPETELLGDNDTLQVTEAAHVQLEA
UniProt P02769, residues 25-607: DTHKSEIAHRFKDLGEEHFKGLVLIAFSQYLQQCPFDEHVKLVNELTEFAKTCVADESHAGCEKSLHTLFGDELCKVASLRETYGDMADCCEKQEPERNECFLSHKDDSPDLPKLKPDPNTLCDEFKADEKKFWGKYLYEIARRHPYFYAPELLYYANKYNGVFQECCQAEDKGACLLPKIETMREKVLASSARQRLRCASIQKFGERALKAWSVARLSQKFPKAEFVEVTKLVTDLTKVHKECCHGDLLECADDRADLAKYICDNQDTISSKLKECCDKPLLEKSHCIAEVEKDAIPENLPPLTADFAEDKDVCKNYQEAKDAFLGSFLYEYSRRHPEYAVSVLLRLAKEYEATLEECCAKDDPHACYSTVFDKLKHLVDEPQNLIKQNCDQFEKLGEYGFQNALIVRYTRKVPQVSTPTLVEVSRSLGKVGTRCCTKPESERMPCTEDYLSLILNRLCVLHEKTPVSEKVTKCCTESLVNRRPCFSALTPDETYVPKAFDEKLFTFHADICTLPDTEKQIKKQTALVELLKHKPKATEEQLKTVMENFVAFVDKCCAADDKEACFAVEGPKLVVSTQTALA

What was measured:
HA-tagged MCPH1 = biological target: T1, HA-tagged MCPH1 (UniProt Q8NEM0); assay: co-IP; anti-HA immunoprecipitation from whole-cell extracts of cells transfected with HA-tagged and FLAG-tagged constructs; immunoblot anti-FLAG and anti-TMEM67
T1 sequence: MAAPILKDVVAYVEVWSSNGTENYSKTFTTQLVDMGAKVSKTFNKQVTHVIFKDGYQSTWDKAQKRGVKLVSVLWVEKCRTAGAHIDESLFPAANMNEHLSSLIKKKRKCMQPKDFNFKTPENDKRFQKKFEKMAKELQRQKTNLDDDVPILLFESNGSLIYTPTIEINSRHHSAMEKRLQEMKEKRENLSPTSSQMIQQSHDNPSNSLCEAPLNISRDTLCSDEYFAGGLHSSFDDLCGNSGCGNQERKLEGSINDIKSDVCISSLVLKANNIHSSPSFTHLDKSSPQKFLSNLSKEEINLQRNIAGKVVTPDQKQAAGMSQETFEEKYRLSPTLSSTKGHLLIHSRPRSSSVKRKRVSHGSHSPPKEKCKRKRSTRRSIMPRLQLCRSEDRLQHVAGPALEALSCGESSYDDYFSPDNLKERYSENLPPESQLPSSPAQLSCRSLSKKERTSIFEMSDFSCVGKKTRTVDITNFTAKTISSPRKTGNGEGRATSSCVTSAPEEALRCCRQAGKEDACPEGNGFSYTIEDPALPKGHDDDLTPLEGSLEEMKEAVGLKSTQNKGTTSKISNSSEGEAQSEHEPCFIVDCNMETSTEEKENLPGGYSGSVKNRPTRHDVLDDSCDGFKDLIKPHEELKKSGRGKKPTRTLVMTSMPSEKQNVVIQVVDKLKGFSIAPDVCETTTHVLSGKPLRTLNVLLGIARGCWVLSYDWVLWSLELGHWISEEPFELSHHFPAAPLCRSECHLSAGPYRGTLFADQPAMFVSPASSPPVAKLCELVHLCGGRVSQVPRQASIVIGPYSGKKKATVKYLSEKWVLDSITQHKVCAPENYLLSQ

[1] = biological target: full-length exogenous HA-tagged TMEM67 (human) (UniProt Q5HYA8); assay: as above
[2] = biological target: endogenous TMEM67 (not stated (endogenous in HEK293 or IMCD3 cells)) (UniProt Q5HYA8); assay: co-IP; immunoprecipitation with rabbit anti-TMEM67 (endogenous TMEM67) from whole-cell extracts of cells transfected with FLAG-tagged constructs; controls no antibody and irrelevant goat and rabbit polyclonal antibodies; immunoblot anti-FLAG
[3] = biological target: T2, TMEM67-Nt protein, wild type (amino acids F39-T478) (human) (UniProt Q5HYA8); assay: in vitro plate binding assay with fluorescein-labelled protein; TMEM67-Nt proteins coated on Immunosorb 96-well plates in 100 mM bicarbonate/carbonate buffer pH 9.6 overnight at 4°C, blocked with 5% non-fat dried milk in PBS; fluorescence-labelled proteins in blocking buffer 2 h at room temperature, washed with PBS; retained fluorescence read; increasing amounts of TMEM67-Nt; purification of TMEM67-Nt not described; only the binder purified
T2 sequence: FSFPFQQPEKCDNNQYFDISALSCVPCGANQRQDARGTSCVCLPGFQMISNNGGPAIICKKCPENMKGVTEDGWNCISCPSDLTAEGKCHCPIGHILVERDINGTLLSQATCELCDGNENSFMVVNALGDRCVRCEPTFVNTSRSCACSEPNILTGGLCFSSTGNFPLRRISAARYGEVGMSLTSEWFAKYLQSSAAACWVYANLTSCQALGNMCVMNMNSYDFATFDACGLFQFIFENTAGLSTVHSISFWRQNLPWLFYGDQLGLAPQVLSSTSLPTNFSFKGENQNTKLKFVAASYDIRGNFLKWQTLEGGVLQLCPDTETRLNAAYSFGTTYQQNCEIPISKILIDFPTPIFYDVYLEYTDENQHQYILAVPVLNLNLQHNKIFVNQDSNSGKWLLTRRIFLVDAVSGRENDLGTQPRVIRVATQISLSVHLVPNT

[4] = biological target: T3, TMEM67-Nt protein (F39-T478) with missense mutation L349S (human) (UniProt Q5HYA8); assay: as above
T3 sequence: T2 sequence with L311S

[5] = biological target: T4, TMEM67-Nt protein (F39-T478) with missense mutation M252T (human) (UniProt Q5HYA8); assay: as above
T4 sequence: T2 sequence with M214T

[6] = biological target: T5, TMEM67-Nt protein (F39-T478) with missense mutation Q376P (human) (UniProt Q5HYA8); assay: as above
T5 sequence: T2 sequence with Q338P

[7] = biological target: T6, TMEM67-Nt protein (F39-T478) with missense mutation R440Q (human) (UniProt Q5HYA8); assay: as above
T6 sequence: T2 sequence with R402Q

[8] = biological target: T2, TMEM67-Nt protein, wild type (amino acids F39-T478) (human); assay: as above; remark: listed apart in the source

binding (HA-tagged MCPH1): no binding | binding [1]: binds | binding [2]: binds
Molecule: FLAG-tagged ROR2 (receptor-tyrosine-kinase-like orphan receptor 2) (from UniProt Q9Z138 34-944)

binding [4]: no binding | binding [5]: no binding | binding [6]: no binding | binding [7]: no binding | binding [8]: binds
B1: fluorescein-labelled purified recombinant Wnt5a (ligand, UniProt P22725 62-380)
chain: IIGAQPLCSQLAGLSQGQKKLCHLYQDHMQYIGEGAKTGIKECQYQFRHRRWNCSTVDNTSVFGRVMQIGSRETAFTYAVSAAGVVNAMSRACREGELSTCGCSRAARPKDLPRDWLWGGCGDNIDYGYRFAKEFVDARERERIHAKGSYESARILMNLHNNEAGRRTVYNLADVACKCHGVSGSCSLKTCWLQLADFRKVGDALKEKYDSAAAMRLNSRGKLVQVNSRFNSPTTQDLVYIDPSPDYCVRNESTGSLGTQGRLCNKTSEGMDGCELMCCGRGYDQFKTVQTERCHCKFHWCCYVKCKKCTEIVDQFVCK
modifications: labelled with NHS-fluorescein

Second part, the molecule before the results:

Molecule: fluorescein-labelled purified BSA (from UniProt P02769 25-607)
binding [3]: no binding

B2: FLAG-MCPH1 (protein, UniProt Q8NEM0 1-835)
chain: T1 sequence
binding [2]: no binding
